Data published in the supplement of paper PMC11417369.
This is one part of the list.

The sequences below were run on PfHDP1 homeodomain (GST-tagged) (assay: gcPBM binding intensity (ln(normalized median fluorescence intensity)); higher = stronger DNA binding).
Summary of the method: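 The binding buffer was 1× PBS containing 1% milk, 0.2 mg/ml BSA, 0.5% salmon testes DNA and 0.03% Triton X-100. In it, GST-tagged P. falciparum DNA-binding domains expressed in E. coli were applied for 1 h to an Agilent 4 × 180k array of primer-extended double-stranded 36-bp intergenic genomic probes plus negative controls. Binding intensity, read with Alexa488 anti-GST antibody and a 488 nm scan, is the highest Masliner-normalised natural-log median intensity across replicate spots of either probe orientation.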

Sequence | gcPBM binding intensity (ln)
ATAATATATTTAATCATACACACATTTATGTACCTA [CACACA_site1719] | 6.44
AAAAATAAAGGGTGTGCACACAAAAATATATATATA [CACACA_site1727] | 10.7
CAAAAATAATAGAATACATGCAAAAATAAATGTATA [TGCATGCA_site196] | 6.51
AAGAAAATAAAAAGGTAAATATGTATAAATAAATAA [TGCATGCA_negctrl_site88] | 6.36
TTTTTTGAAAATAAATGTACGAATTTTATATTTAAA [XGTACX_site2768] | 6.16
TGAAATAAAATTATTTGTACATATCGGAAAAAAAAA [XGTACX_site7131] | 6.37
AAGGCATATATAATTTGTACATATTAAGAATTAGAT [XGTACX_site8660] | 6.82
AAATTACCCATCCATACACACATATTTTTTTTAATT [CACACA_site2189] | 7.01
GATACAGATGGACACACACACATACATAAATACATA [CACACA_site5833] | 6.89
TAATGACAATAAAAATAAATAAATAAAAAAAAAAAA [TGCATGCA_negctrl_site321] | 6.15
AATAAATAAATAAATAAATAAATATATATATATATA [GTGCAC_negctrl_site330] | 9.07
ATATATTATCTGTACACACACATATAAGGGATTATA [CACACA_site4180] | 6.8
TTTATTTTGTTTATGGTGCATTTTATGTAAATATAT | 9.45
AATTTTTATACGGATACACACAAAAAAAAATAAAAA [CACACA_site897] | 6.64
TAAATATATTTATAAGCACACACTAATAAACCCACA [CACACA_site390] | 7.1
AAAATATATTATTATTGTACATATATTTTCATTTAC [XGTACX_site4593] | 6.4
TACAATATAAAATACACACACACAAACATATATTTA [CACACA_site5941] | 7.08
TATATATATTTATAATGTACACATATATGTAAATAT [XGTACX_site3695] | 6.73
TGCCCTAACCATACTACACACACTGCTCAAAATAGT [CACACA_site2219] | 7.09
AAAAAATACATACATACACACATATTTATTTATATA [CACACA_site6554] | 6.42
TTATGCATATATTATGCATGTAGTTTTAAATCACAT [TGCATGCA_site104] | 6.37
TATATACACATTTTTATACACACTTGTTTTATAAAA [CACACA_site8139] | 7.12

Sequence | gcPBM binding intensity (ln)
GCACAAATATATATATATATATATATATATATATAT [GTGCAC_negctrl_site661] | 9.39
ATAATTATATACCATGCACACAAATATTCATACAGG [CACACA_site9343] | 8.83
AAGAACCATATTTAAACACACATACCTATATAAATA [CACACA_site7553] | 6.32
CAAAAGAAGGTAAACACACACACACCCATACAAAAA [CACACA_site3765] | 7
ATTATTCGTTTTAAATGTACTCATATAAACGATAAA [XGTACX_site7866] | 6.27
TAAATAAATCCACATACACACACGACGCTAGTATAT [CACACA_site1060] | 6.28
TTTTTATTTTTAGTAGTGCATTAATCATATGGTCAT [GTGCAC_site9879] | 8.77
GATAGATAATATTTTAGTACATAAACAATTAAATAT [XGTACX_site4125] | 6.52
AATATTTTATTTTTTCTCATTAAAAATTTTTTTTTT [CACACA_negctrl_site364] | 6.37
ATATTTTTTTTCATTTGTACACATAAAATTATATAG [XGTACX_site8260] | 6.68
CATATTTACATTAAGTGTACTTATGAATATATATAC [XGTACX_site7962] | 6.2
ATAATATTTTATAATTGTACTTTTTATAAATATAAA [XGTACX_site1940] | 6.14
TTTATTAAAACAAAATGTACACACATATAATTTAAT [XGTACX_site1637] | 6.39
TAAATTCTGTTTAAAAGTACAAATAATATTGTGCCT [XGTACX_site7805] | 6.02
AAATGTTGAAATGATACACACATATATATATATATA [CACACA_site2517] | 9.25
TGAAAGTGTATTAAAGTGCATATTATTTTATCTACC [GTGCAC_site9969] | 8.63
TTAATCTTCATAAAATGTACAGAAGATTGAATATTC [XGTACX_site6213] | 6.11
TTATATTTTTTTTGTAGTACATTATAGAATACACAC [XGTACX_site969] | 6.58
TTAATAACAAAATAAACACACATATATAAATACACA [CACACA_site6849] | 6.95
AAATTATATATAATAAATAATTTCTTTTTCTAAAAG [CACACA_negctrl_site8] | 5.91
AAAAAAAAAAAAAAAAGTACACACTTTTGCCTACAT [XGTACX_site6583] | 6.68
TTTTATAATTTCAAAGGATTCTTTAATATTATAAAT [CACACA_negctrl_site1812] | 5.9

Sequence | gcPBM binding intensity (ln)
AATAATTGCTAAAGGTGTACAATACGTATATAAGAA [XGTACX_site4910] | 8.18
AAATCAAAAACGTTTACACACATTCTTATTTAAATA [CACACA_site790] | 7.07
TACAGAAATTTATATATATATATATATATATATATA [XGTACX_negctrl_site209] | 9.41
TACATATATTTTTTATGTACTTACTTGTGTGTTTAT [XGTACX_site5126] | 6.33
TGAGACATGAATGCAAGTACAAAAAGGAGAACAAAA [XGTACX_site6183] | 7.07
GGAAAGACAGTTCACAGTACCCAGTAACTCTACGGA [XGTACX_site2009] | 5.73
TTCATGCTTATATGTGCACACACAAAAGAAAAGAAA [CACACA_site1656] | 10.8
ATAATACAATTTATAACACACACACTATAATACATA [CACACA_site8338] | 6.97
AAATAATAAATTATAACACACATATATATATATATA [CACACA_site4045] | 9.33
TTTCACCATATAAACGTGCACACTACAAAAATATAT [CACACA_site2547] | 9.45
GATTATTTTATAAGTACACACATTTATATATAATAA [CACACA_site2573] | 6.51
GCATAAATTATCATAACATAAATATAAAAATATAAT [GTGCAC_negctrl_site55] | 6.31
AAAAAAAAAAGACACACACACACATAAATATAAATA [CACACA_site6215] | 6.87
ATTTATTTCACAAAAACATGCAGTTTGAAATTGCCA [TGCATGCA_site910] | 6.15
AATTCATTATATATACGTACATATTTCTGTATAAAA [XGTACX_site6371] | 6.39
TTATATAGGTCATTCATAAATACAGTTTTTAAAAAA [CACACA_negctrl_site1340] | 6.49
TGTGCACATAATTAGTGTACATTTTTTATTTAGACA [XGTACX_site317] | 10.1
AATGGCAAAATAGGCACACACACATATACATATATA [CACACA_site1058] | 6.85
AAAAAAAAAAAAAATACACACATATAAATATAAATA [CACACA_site6189] | 6.43
CTTATTGATTTAAAAAGTACATATATGTATATACAC [XGTACX_site4072] | 6.56
AGATTTAAATATCATACACACTTTATATATAATACA [CACACA_site4688] | 6.49
ATTAGAGAATCGTAACCCAAATGAACATACTTAAAT [GTGCAC_negctrl_site363] | 6.38

Sequence | gcPBM binding intensity (ln)
AATTATATTTGAAATACACACATAAAAATCATATAG [CACACA_site3468] | 6.42
TGTTATATGTTCAAATGTACAAATCATATACATGTT [XGTACX_site3192] | 6.4
GTGTACAGACACAAAATATATACATATATATATATA [CACACA_negctrl_site1796] | 9.2
AATATATAAACCGAACGTACATATTTTTTATACACC [XGTACX_site2121] | 6.59
ATTATTTTCTCATAGAGTACAAATGTTGTTGTTGTC [XGTACX_site1062] | 6.24
TATTTTCATAATAAAAAAAAATAATTTAAAAAATAT [CACACA_negctrl_site748] | 5.77
ATGGATTATACGTGCACACATATATACCAATAAATA [CACACA_site4524] | 9.93
CATTAAAATATGAGATGTACACAATATCTATTATAT [XGTACX_site4979] | 6.38
AAATAATGAAACAAAGTGCATAAAAATATACATATA [GTGCAC_site9467] | 8.19
ATTTAAATATCTTCTTTTTTTTTTTTTTTTGAAATT [CACACA_negctrl_site1074] | 5.93
GTGTATAATATAGGATGTACAATAAAACACCGATTG [XGTACX_site7429] | 6.8
GAGCGTAATCTATTTGCACACTTATTTGTTCTTAAA [CACACA_site673] | 10.3
ATAAAAACATAAACAAATCAAAAAAAAAAAAAAAAA [CACACA_negctrl_site13] | 6.1
TTGTTTATCAACAGCACACACAACAACAACAACAAC [CACACA_site458] | 6.75
TCCTTATAAAAATACACACAAACTTTAATTAAAACA [CACACA_site3730] | 6.58
CTATAATAACATAACACACACATGTATTTATAGGTG [CACACA_site6298] | 6.66
ATATATATACAACAAGCATGCAGTAATTTTTTTTTT [TGCATGCA_site728] | 6.88
AAAAAATATATATCACGTGGTAATATATATATATAT [XGTACX_negctrl_site252] | 8.94
AAATTAAATCCGCACGCACACACACCGATTAATAAA [CACACA_site9321] | 7.21
AATATATAAATAGATACACACATACATACATACATA [CACACA_site4301] | 6.71
TACATCTGTATATAAACACACAACAAAAATGCTTAC [CACACA_site3814] | 6.61
ACACCTATAAATTAAGTGCATTTTTTTTGATGTTAT | 9.8
